Assay results from the supplement of paper PMC5499739.
Whole data set: some 16,000 sequences, median “Z-score” near -0.37, cut for the highest 2% near 3.2. The list shows a part of the results.

test system: RBM10 RRM1-ZnF (GST-tagged construct); test: RNAcompete 7-mer binding Z-score; higher = stronger binding preference
Procedure: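 RNAcompete: 20 pmol GST-tagged RBM10 RNA-binding constructs were incubated with a designed RNA pool of about 241,000 sequences up to 41 nt (1.5 nmol) on glutathione beads for 30 min at 4 °C and washed. Bound RNAs were identified by microarray hybridisation. Each RNA 7-mer is scored by a one-sided Z-score of its enrichment, computed over probes that contain the 7-mer within longer pool sequences.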

Sequence	RNAcompete 7-mer binding Z-score
ACGCUUG	-0.675
GUUACUA	-0.253
GUACGGU	1.21
AUACCUG	-0.642
AAUGAAA	-0.288
AUAUACC	-0.636
CAGCCCG	-0.461
GACUGCC	-0.717
UUCCUAC	-0.824
UGGCCUA	-0.149
CGACGUC	-0.604
CGCUAUG	-0.246
CGACCAC	-0.454
UAGAUUG	0.128
AAUCUCC	-0.811
AGCUCCU	-0.665
GCAUUUA	-0.587
CUGUCUU	-0.889
CCUACUA	-0.85
GGAGAAA	1.68
GAAUAGA	0.777
GACGAAG	1.45
CCUAAAG	-0.444
AUCAUAU	-0.474
ACAUUAU	-0.633

Sequence	RNAcompete 7-mer binding Z-score
CUAUAAU	-0.727
UGCGGUA	0.504
ACAAGUG	0.254
GUCACAC	-0.171
AGGUUCC	-0.197
AAUGUCU	-0.639
CGAGAUC	-0.259
ACCUCAG	-0.62
CCGAUUA	-0.591
AGAUCGU	-0.438
GCGUAAG	0.534
AAUUAAG	0.0203
ACCGAUC	-0.756
GACUAUU	-0.776
AAUCACG	-0.386
UGCACAG	-0.0122
UCCGUGG	0.332
AGCUCAG	-0.428
GCAGUGA	0.179
GUGUACG	1.1
AAGCAUG	-0.035
GCAGGUG	1.92
CGGAAAG	1.84
GCUUAGU	-0.178
CGCGAAC	-0.438

Sequence	RNAcompete 7-mer binding Z-score
ACAUCGG	0.137
AAAGAAU	-0.0382
CUUAGUU	-0.526
UUUUGAC	-0.893
UUUUGGG	1.35
UUCAUUU	-0.902
UUCACUU	-0.805
UAAAGGC	0.472
UACCGUA	-0.565
UCAUGAA	-0.509
UUUUCUU	-0.772
CCCUCCG	-0.373
UAAAUUC	-0.639
CACAGGA	0.303
GCGCGUG	0.712
UGAACAA	-0.155
CUUUCGA	-0.75
CCCGCGA	-0.75
UCGCAUG	-0.347
UAAAGUC	-0.457
UCGGCUA	-0.262
AUUCCUU	-0.873
AGUCAGA	-0.0122
CUCUCAA	-0.655
GCGUCGA	-0.158

Sequence	RNAcompete 7-mer binding Z-score
GGUUGUA	1.12
ACUUAUU	-0.633
UACAAAA	-0.444
GGAUGUC	0.897
CCUAUAA	-0.646
CGGGCAU	0.66
GCGCGAA	-0.331
AGUAAAC	-0.22
GCGACCG	-0.168
GAGAUGU	0.361
UCCCGUU	-0.75
GAGCACU	-0.422
UCCGCCA	-0.714
AAGUCCC	-0.646
ACUUGGC	-0.565
UAUUAUG	-0.0869
UCGAAAU	-0.685
GCGUUCC	-0.558
GCGCAUG	0.166
CAAUACG	-0.334
GUAUUGC	-0.321
CAAGAUG	-0.0479
CAAAUCC	-0.857
UCGAGUA	-0.321
CGUCUAG	-0.519

Sequence	RNAcompete 7-mer binding Z-score
GCACAAC	-0.461
ACAUAAU	-0.604
GGAUUUA	0.621
UAGGAUU	0.868
CCAACAU	-0.652
CCAGAUG	-0.435
GGCCGUA	-0.246
UGUAUAA	-0.259
GCCACAG	-0.184
GUGCAAA	0.144
UUAGCAU	-0.418
UCUACCU	-0.909
UGCCUAA	-0.759
CCCGUUU	-0.958
GGUAAAU	1.25
GUCAAAA	-0.347
CGUGCCU	-0.681
ACCCACA	-0.636
AUAGUGU	0.0625
ACCAAUU	-0.733
GCGCGAU	-0.0155
GGAGCGA	2.71
AGUUGUU	-0.376
CCAGCCG	-0.542
AUUUGAG	0.0983

Sequence	RNAcompete 7-mer binding Z-score
CCCUAAA	-0.587
CGGCUGC	0.134
CUACUUC	-0.912
AUCGCAA	-0.526
UACAGGU	0.881
GCUGGCG	0.521
UGGAGCU	0.849
GAUGUCU	-0.428
GUAACUU	-0.392
CCCUUCU	-0.675
CCGUACG	-0.513
GUCCGAC	-0.662
AGUCCCU	-0.711
CCUAGUA	-0.431
UUCACCA	-0.86
AUCAAGC	-0.626
GCUUAUG	-0.233
ACUUUGG	-0.35
CAGACGA	0.27
UAAAGAG	0.319
UAUCGCG	-0.383
UUUGCGG	0.131
UUGGGUC	1.04
CGGUCCA	-0.633
GAUCUGA	-0.318

Sequence	RNAcompete 7-mer binding Z-score
CACCGAG	-0.113
UACAAUG	-0.347
UAGGUUG	2.09
UUUGUGG	1.35
CUGUUAA	-0.779
CGCGAAA	-0.415
CCGCCGU	-0.519
UUGCACG	-0.136
GUACUUC	-0.74
AGGAUGG	3.77
CCUCUGA	-0.789
GACGCGG	0.755
CACCAGG	-0.00571
AGCUACG	-0.113
GUUAGGU	1.86
UGAGUGU	0.413
UCCAUUA	-0.75
GGACAUC	0.267
UACCGUU	-0.714
CUUGCAG	-0.733
AGGUUUG	1.32
GUUCAGG	0.683
CUUAAGU	-0.639
AUGACUG	-0.00246
CCUGUGA	-0.62

Sequence	RNAcompete 7-mer binding Z-score
CCGGGUU	0.647
CUUCACG	-0.798
UCUUAGA	-0.594
ACAGCUA	-0.503
AUGGAGU	2.63
AAACGAG	0.303
UACGAGA	-0.246
UGACCCA	-0.5
CGUGCCG	-0.415
GAGCGAA	0.823
ACGCAUG	-0.0804
GCACGCC	-0.467
GCUGACG	0.313
CAAGUAU	-0.285
AUAUAUU	-0.652
CAUAUAU	-0.672
GCGGCUC	0.0105
UAAACGC	-0.542
AUAUUGA	-0.292
AAACUAG	-0.327
UACGCCC	-0.655
GUAUUCC	-0.392
UGAACCA	-0.409
GAGUGCG	1.42
AGUGGCU	0.547

Sequence	RNAcompete 7-mer binding Z-score
GGAAGCU	0.797
CCAAGUU	-0.701
AAAUCAC	-0.591
UUCGUUU	-0.548
UAAUGAU	-0.402
AUAUUAC	-0.655
CUGACAA	-0.457
CACGCCA	-0.623
GCAUCUU	-0.811
ACGGGUA	2.05
CUUUCCU	-0.906
GCCAGAC	-0.386
UCCGUCG	-0.425
GCGCAUA	-0.386
GUAUCAU	-0.288
UGGUAUU	0.326
GUCUCCU	-0.584
CAGCUGU	-0.548
CGAAGAC	-0.542
CAUUUCA	-0.85
UUACGGU	-0.0317
ACCAGAU	-0.597
UCGAUCA	-0.49
CGCGAUG	-0.0999
UCGUCUG	-0.623

Sequence	RNAcompete 7-mer binding Z-score
UUCAGAC	-0.652
AUCCGUG	-0.72
ACCAGGA	0.823
UCAACAA	-0.604
GUGUCCC	-0.103
GUUUCAA	-0.594
GUUAUCG	0.0885
CAACAUU	-0.639
CAACUGG	0.0528
ACAAUCU	-0.889
CGUGCGG	1.09
CUGGCUA	-0.402
UUAUUAG	-0.311
AAACCGU	-0.72
GGGCUGA	1.46
UCUAUGU	-0.581
ACUAAGA	-0.324
CCCAACC	-0.613
AGGGGGC	1.83
AUCUAUU	-0.668
UAUUGCA	-0.48
CCGAGUC	-0.772
AGCGUCG	-0.035
AACCAUU	-0.87
CCUAGUC	-0.652

Sequence	RNAcompete 7-mer binding Z-score
CAUAAUG	-0.217
CCUACGC	-0.672
CGCAAUA	-0.415
UCGUACA	-0.448
GGACCGU	-0.142
ACGAUUC	-0.675
GACGCCG	-0.717
AGAGAUU	-0.126
GCAGUAA	0.339
ACCCCCA	-0.331
UUGCGCU	-0.73
CAUGAAG	0.03
GACCUAG	-0.295
UACGGUC	-0.578
UAACUUC	-0.727
CUGACAG	-0.142
CACCGGA	-0.0772
GGGGUGA	4.16
UGGUGUG	2.77
CGCCAAU	-0.613
UGUCCGC	-0.62
ACCACCC	-0.483
CGCUACC	-0.724
AAGGUCG	1.76
GAUCGAU	-0.298

Sequence	RNAcompete 7-mer binding Z-score
AACAGAU	-0.0902
AGAGCGU	-0.201
CGGUUCC	-0.366
CAGGGGA	2.99
ACGUUAU	-0.448
CUCGCCC	-0.412
CCACCAC	-0.227
AUAGAUC	-0.188
GACUUAA	-0.591
UUCCACA	-0.662
CUGAGUC	-0.649
GUAAGCU	0.0625
UCAUUUU	-0.86
AGGCGGU	0.862
AUCGAGG	1.07
CGAUACG	-0.22
CGUUGUC	-0.568
GAGGGUU	3.03
CGCUGAG	-0.158
UCCUGUC	-0.776
GAGUCCG	-0.428
AGUCCCA	-0.714
CGUAACA	-0.262
CUUUCGG	-0.565
CCAGAUA	-0.688

Sequence	RNAcompete 7-mer binding Z-score
UAUAGAU	-0.266
UAUAUAC	-0.513
AUGUUCA	-0.727
CGACACC	-0.561
UCCUUGA	-0.72
GUCUGUU	-0.48
AAGCAAA	-0.0447
GACGUAG	0.608
AAUCAGA	-0.162
GGAGUAU	1.45
CGCCGCG	-0.217
UCAAUUA	-0.646
UUCGUCC	-0.782
GUUAGUA	0.342
GCUUGAU	-0.545
UCCUCAC	-0.694
AGUGUCA	-0.357
GUAAGAC	0.124
GUGUGAU	0.491
UACGGAC	0.293
ACCAGAC	-0.6
CUCCGGA	-0.347
GAGAAUU	0.0235
AAUCGUG	-0.23
GGGUAAA	3.98

Sequence	RNAcompete 7-mer binding Z-score
UCUGCCU	-0.857
CAGUGGG	2.24
UCACGGC	-0.681
GGUUGAA	1.86
CCUUUUA	-0.993
CUUAUGA	-0.62
UAGCGGU	0.209
CUUCACU	-0.828
ACUACCU	-0.824
CAUAGCC	-0.776
GCAUGCA	-0.116
CUGUACG	-0.344
UAAAGGA	1.62
GCGAUUU	-0.613
GCUGCGC	-0.0642
GUCUUUA	-0.652
UAGUAUU	-0.295
UUUAUAG	-0.483
CGUAGGC	0.345
GGCGAAC	0.686
GCGUGGU	1.59
CCACCAA	-0.724
CGGGGCG	2.69
GCUUUCU	-0.818
GUACGAC	-0.165

Sequence	RNAcompete 7-mer binding Z-score
UUCAUAC	-0.756
UACACCG	-0.464
CCCACUC	-0.578
GCCACAC	-0.37
AGCGAGU	0.826
CCAUGUG	-0.454
AGGUCCG	-0.266
GCCGCAG	-0.275
AGAGGCC	-0.629
UAGCACC	-0.581
AACUUUA	-0.815
ACAAUGG	1.33
UUUGCAC	-0.623
CAUUCAG	-0.646
CGCUGGU	0.332
CUGAUGG	0.55
GAAAUCA	-0.415
